According to PubChem BioAssay AID624296 (National Center for Advancing Translational Sciences (NCATS), 2012):
The campaign covered roughly 350,000 compounds. About 9,900 (2.8%) were called active. Inconclusive means that the source gave no clear call. Such entries were picked first, then a sample of the others. The call rests on the fitted dose curve; in most records, active means well fitted activation curve with a large enough effect; inconclusive means small, poorly fitted or top-dose-only effect; inactive means no such curve, though single readings can be large or run the other way. Potencies of inconclusive entries are left out as doubtful fits.

Test: A quantitative high throughput screen for small molecules that induce DNA re-replication in MCF 10a normal breast cells. Further: nearly all actives have a fitted effect of over 50% in size. On activity, positive = re-replication: % of control where 0% means no effect.
Conditions: MCF 10A DNA re-replication, Hoechst nuclear intensity, 48 h; activity, positive = re-replication: at 46.1 µM (top of the series)
Potency means the concentration at half of the fitted maximal effect; tags describe the fitted curve by direction and shape.

SMILES | activity, positive = re-replication | Potency
Cn1nc(C(C)(C)C)cc1C(=O)NNC(=O)c1cccc(Cl)c1 | inactive: 0% | 
COc1cc2c(c(OC)c1CC=C(C)C)C[C@H](c1ccc(O)cc1O)CO2 |  | active: 16.4 µM
CCOCCCn1c(SCC(=O)N2CCOCC2)nc2ccccc2c1=O | inactive: -14.6% | 
O=C(Nc1ccc2c(c1)OCO2)c1c(F)c(F)c(F)c(F)c1F |  | inconclusive [activator, single point]
NC(=O)COC(=O)/C=C/c1ccc2ccccc2n1 |  | inconclusive [activator, single point]
O=C(NCCCN1CCOCC1)c1cc(Cl)ccc1[N+](=O)[O-] |  | inconclusive [activator, single point]
COC(=O)c1ccc(NC(=O)Nc2ccc(F)cc2)cc1 |  | inconclusive [activator, partial curve]
CCCC(=O)NC(c1ccccc1Cl)c1ccc2cccnc2c1O (configuration not stated) |  | inconclusive [activator, partial curve]
CC(=O)Nc1ccc(C2=CC(=O)C[C@H](c3ccc(Cl)cc3)C2)cc1 |  | active: 18.4 µM
CCOC(=O)c1sc2nc(C3CC3)cc(-c3ccc(F)cc3)c2c1N |  | inconclusive [activator, partial curve]
CCOC(=O)COc1c(OC)cc(Cl)cc1C1Nc2ccccc2C(=O)N1c1ccccc1 (configuration not stated) |  | inconclusive [activator, partial curve, poor fit]
Cc1cc(Oc2ccc(=O)n(C)n2)nc(SCc2ccccc2)n1 |  | inconclusive [activator, full curve, poor fit]
CC[n+]1ccccc1/C=C1\Sc2ccc(C)cc2N1C |  | inconclusive [activator, single point]
O=C(CN1CCCCC1)Nc1nc(-c2ccc(F)c(F)c2)cs1 |  | inconclusive [activator, single point]
C/C(=N\Nc1cc(N2CCOCC2)nc(C)n1)c1ccc(F)cc1 | inactive: -10.4% | 
O=c1c2ccccc2c(-c2n[nH]c(=S)o2)nn1Cc1ccccc1 |  | inconclusive [activator, single point]
Cc1c(NCc2cc(Cl)ccc2O)c(=O)n(-c2ccccc2)n1C | inactive: -0.137% | 
CCC1CCCCN1CCNC(=O)CCS(=O)(=O)c1ccc(Br)cc1 (configuration not stated) |  | inconclusive [activator, single point]
CC(CNC(=O)CCC(=O)N1CCOc2ccccc21)c1ccccc1 (configuration not stated) | inactive: -0.157% | 
N#Cc1c(NC(=O)COC(=O)c2ccc(O)cc2O)sc2c1CCC2 |  | inconclusive [activator, full curve, poor fit]
CC(=O)C1(C)OC(N)=C(C#N)C(c2ccccc2)C1(C#N)C#N (configuration not stated) |  | inconclusive [activator, partial curve, poor fit]
Nc1cc2ccncc2c2ccccc12 |  | active: 20.6 µM
CC(=O)NC(CC(=O)Nc1nc(-c2ccc(N(C)S(C)(=O)=O)cc2)cs1)c1ccccc1 (configuration not stated) |  | inconclusive [activator, single point]
COc1cc(Oc2nc(C(F)(F)F)nc3ccccc23)ccc1C=O | inactive: -3.92% | 

SMILES | activity, positive = re-replication | Potency
O=C(NCc1ccc(F)cc1)c1ccc(S(=O)(=O)Nc2cccc(C(F)(F)F)c2)cc1 |  | inconclusive [activator, single point]
CSc1sc(-c2ccnc(=S)[nH]2)c(-c2ccccc2)c1C#N |  | inconclusive [activator, single point]
CC(C)(C)c1ccc(OCC(=O)Nc2ccc3c4c(cccc24)C(=O)NC3=O)cc1 |  | inconclusive [activator, single point]
CN(Cc1nc(-c2cccs2)no1)CC1COCCO1 (configuration not stated) | inactive: 1.32% | 
Cc1nc(N2CCOCC2)c2c(C)c(C(=O)Nc3ccccc3Cl)sc2n1 | inactive: -9.77% | 
CCOC(=O)C(=NC1CCCCC1)NNc1cccc(C(F)(F)F)c1 |  | inconclusive [activator, single point]
Cc1ccc(C)c(NC(=O)CCC(=O)NNC(=S)Nc2ccccc2)c1 | inactive: -1.38% | 
COc1ccc(NC(=S)NC(=O)c2csnn2)cc1 |  | inconclusive [activator, single point]
OCC1(CCOc2ccccc2)CCN(Cc2ccncc2)CC1 |  | inconclusive [activator, full curve, poor fit]
CCN1CCN(CCCNC(=O)C2CCCN(c3nc4c(C)cc(C)cc4s3)C2)CC1 (configuration not stated) | inactive: 13% | 
COc1ccc(/C=C/C(=O)c2ccc(Cl)cc2)c(OC)c1 |  | inconclusive [activator, partial curve, poor fit]
CC(=O)Nc1cccc(Oc2ncnc3scc(-c4ccc(C(C)C)cc4)c23)c1 |  | active: 23.1 µM
COc1ccc(C(=O)CC(=O)c2ccc(F)cc2)cc1 | inactive: -0.619% | 
COc1ccc(-n2ncc3c(NCC(C)C)ncnc32)cc1 | inactive: 9.36% | 
CN(C)C1C(=O)c2ccccc2C1=O | inactive: 0.138% | 
Cc1ccc(S(=O)(=O)Nc2cc(C(F)(F)F)ccc2N2CCOCC2)cc1C |  | inconclusive [activator, partial curve, poor fit]
Cc1ccc(C(=O)NC(=S)N2CCN(c3cc(C)ccc3C)CC2)cc1 |  | inconclusive [activator, partial curve, poor fit]
CN(Cc1ccc(C(C)(C)C)cc1)Cc1cccc2ccccc12 |  | inconclusive [activator, single point]
COc1ccc(/C=C2\SC(=O)N(CCNC(=O)Cc3coc4cc(OC)ccc34)C2=O)cc1 | inactive: 7.44% | 
Cc1ccc(CC2C(=O)N(c3ccc(F)cc3)C(=O)C2C)cc1 (configuration not stated) |  | inconclusive [activator, single point]
Cc1ccc(OCC(=O)N2CC3(C)CC2CC(C)(C)C3)cc1 (configuration not stated) | inactive: 28.9% | 
CCOc1cc(C(=O)NCc2ccc(-c3nc4ccccc4o3)cc2)cc(OCC)c1OCC |  | inconclusive [activator, partial curve, poor fit]
CCOC(=O)CC(=O)CSc1nnc2c(n1)[nH]c1ccccc12 |  | inconclusive [activator, single point]
